Laboratory results published in the supplement of paper PMC3334620.
Whole data set: some 33,000 sequences, median “E-score (-0.5 to 0.5)” near -0.043, cut for the highest 2% near 0.37. The list shows a part of the results.

target: T1, Upc2 (UniProt Q12151); assay: PBM E-score (8-mer binding enrichment) (E-score (-0.5 to 0.5)); higher = stronger / more preferred TF binding; most listed sequences are background and not binding sites; conditions: protein concentration: 200 nM; construct: GST-full length
T1 sequence: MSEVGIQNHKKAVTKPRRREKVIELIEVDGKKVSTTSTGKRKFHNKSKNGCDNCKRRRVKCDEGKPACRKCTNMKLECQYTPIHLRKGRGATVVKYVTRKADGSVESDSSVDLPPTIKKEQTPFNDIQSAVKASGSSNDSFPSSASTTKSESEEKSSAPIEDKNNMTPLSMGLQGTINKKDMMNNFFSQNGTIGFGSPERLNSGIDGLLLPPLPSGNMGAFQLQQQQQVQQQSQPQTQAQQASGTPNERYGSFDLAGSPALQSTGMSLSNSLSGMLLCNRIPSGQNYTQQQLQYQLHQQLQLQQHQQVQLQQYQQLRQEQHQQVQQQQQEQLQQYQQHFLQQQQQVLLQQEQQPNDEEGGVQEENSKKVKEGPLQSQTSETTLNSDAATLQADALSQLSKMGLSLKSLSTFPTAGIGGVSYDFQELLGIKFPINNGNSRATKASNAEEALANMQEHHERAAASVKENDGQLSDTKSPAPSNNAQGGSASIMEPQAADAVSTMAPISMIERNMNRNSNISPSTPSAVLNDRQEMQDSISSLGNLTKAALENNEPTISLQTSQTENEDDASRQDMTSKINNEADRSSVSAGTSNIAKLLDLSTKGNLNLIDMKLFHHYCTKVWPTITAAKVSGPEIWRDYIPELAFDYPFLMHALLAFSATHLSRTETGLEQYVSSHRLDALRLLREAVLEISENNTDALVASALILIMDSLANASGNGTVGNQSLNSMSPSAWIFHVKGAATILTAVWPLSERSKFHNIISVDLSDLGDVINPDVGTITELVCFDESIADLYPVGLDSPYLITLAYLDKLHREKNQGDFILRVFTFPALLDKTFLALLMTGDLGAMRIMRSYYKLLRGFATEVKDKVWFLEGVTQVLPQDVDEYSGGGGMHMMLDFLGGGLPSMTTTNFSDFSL
How it was run: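 GST-tagged yeast TFs (full-length or DNA-binding domain) were made by PURExpress in vitro transcription/translation and applied at about 100-200 nM to universal all-10-mer Agilent arrays. The arrays were made double-stranded by primer extension, on fresh or once-stripped slides. Bound protein was detected with fluorescent anti-GST, and scans were normalised with masliner. Each ungapped eight-base word, pooled with its reverse complement, received an E-score (modified Wilcoxon-Mann-Whitney statistic) from the Universal PBM Analysis Suite.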

Sequence | PBM E-score
ATTGCCCC | -0.283
CCTACTAC | -0.098
ACATCACA | -0.0803
GCGTCAGA | -0.176
GCCGATTA | 0.00607
AACTACTA | 0.0312
CTGTCAAG | -0.0725
GCTTTACC | 0.148
CCTCAAAA | -0.19
CTGACAAG | -0.0909
GGAACCCC | -0.0362
GGCCTACC | -0.221
TAACTGGA | -0.168
GCCGTGCA | -0.291
CCTCGTAC | 0.477
AACTTTTA | 0.273
ATGAGTAC | 0.143
CCTAGGTC | -0.16
ATCAAAAG | 0.00236
AAGACGCC | -0.0653
CTAATATA | 0.0898
AGGCCAGG | -0.146
CATGTCGC | 0.136
AGCTAGGC | -0.258
ACGTCCCA | -0.208

Sequence | PBM E-score
ACTGCGAA | -0.0814
AGGGTAGA | -0.15
GGTACGGA | 0.355
ATGACTAC | 0.0234
CTAAGCGA | 0.416
CCAGTAAG | -0.0281
GCGCAGCA | -0.33
GCTCCTAC | 0.0461
GCAGCGAC | -0.113
GGTTGCCA | -0.275
AGCCCCCG | -0.142
ACAAGATA | -0.0572
CGCCAACG | 0.123
GGACGGAA | -0.0928
GGCACAGA | -0.0746
AGCCGCCT | -0.201
CGCGGACG | -0.103
ACTCTGAT | -0.142
ACTGGCGC | -0.0129
CCCTTCTA | -0.296
ATTGAACG | 0.356
ATCGTTGC | 0.212
CTGGTAAA | -0.0673
ACGCTTTG | 0.0831
GCTATCCC | -0.119

Sequence | PBM E-score
CAGCCTAG | -0.156
AAGCAAAT | 0.0325
AGGACCAG | -0.266
ATCACGAG | 0.0301
AGCGTAAG | 0.124
TGTATGAA | -0.0102
AACTTCAT | -0.0399
GGGATTCA | -0.143
CCTGTTCG | 0.161
CCACCTCG | 0.0683
ACTGCCTA | -0.0135
AAAAGTAA | 0.0218
CCGAAAGG | -0.132
CACGACGG | 0.129
CGATAGCC | 0.0375
AGGTGAAT | -0.0674
ACATCCAG | -0.124
AAGGCGCA | -0.0582
AGAGAAAC | -0.0899
CCAATGCA | -0.299
GTAAACGA | 0.491
AACCGGCC | -0.0174
GTGACTGA | -0.173
GCGAGAAA | 0.0818
TAACGTCA | 0.0914

Sequence | PBM E-score
CTGGGGCA | -0.2
AGAACCCC | -0.182
CTGTATGC | -0.0519
GAAAGATC | 0.00511
GGGGGGAA | -0.152
CAATGAGG | 0.0308
AGTGCTAT | -0.0648
CAATAGGC | -0.0765
GGAAGGTA | -0.00925
GAGTAACC | 0.101
GAGGGGCA | -0.0852
CATCAATC | -0.126
AGTGTGTG | 0.0245
GAGGAACC | -0.0783
CGCCTTCA | -0.251
AACTGGAA | -0.118
CCGCTTGC | -0.0954
AGCTCAGA | -0.0803
CAGGTTCC | -0.184
GGTCTTAC | -0.0349
ACTTGGCC | -0.0135
AATATGGA | -0.139
ATACAGCC | -0.0675
CACCCCGC | 0.0339
ACGCACCT | -0.0479

Sequence | PBM E-score
CTTGTGAC | -0.206
CCATACCA | -0.0836
ATGGACCG | -0.0313
CATGGTTC | -0.0162
ATTGAGGC | -0.127
GGGCAATA | -0.00082
ATATCAGC | -0.156
CGACTTTA | 0.17
TGAATGAA | 0.0389
AAAGACGG | -0.124
AACGTGTA | 0.103
GCGGTGTA | 0.0914
CTAGAAAG | -0.198
AGATACCT | -0.116
CTAAACTC | 0.0155
TCATTACA | 0.0082
ATTACATA | 0.0413
AGATTACT | -0.177
CGGGCAGA | -0.0216
CACTCAAA | 0.0904
GAACAACA | -0.135
AGAAGACG | -0.00555
CAGTGCGG | -0.121
CTTTCTAC | 0.0545
AACACATG | -0.127

Sequence | PBM E-score
CTCAGCAA | 0.0107
CAGGGCTA | -0.257
AGTCTATA | 0.0445
AATTAAAG | -0.145
ACCGTGGC | -0.0829
ATGATGAC | -0.184
AATCAAAG | -0.17
AAGCGAAA | 0.187
GACGGCGA | -0.045
ACATTCCG | 0.00995
AACGAAGT | 0.415
ACCATCTG | -0.225
CCTTCCTA | -0.235
AGAACGCG | 0.138
CCAGGAAA | -0.203
CGCGCGAA | 0.143
CGCTTCTA | 0.0236
TGCTAGCA | -0.0249
GCACACTA | -0.135
CCGCCTTC | -0.0732
GCGTTTAA | 0.4
AAGTGCGA | -0.0126
CCCGAAGG | 0.0291
CCACTGTC | -0.081
AGTTAAAG | 0.0271

Sequence | PBM E-score
GACTACTC | 0.111
CCGTGCAG | -0.139
ATCTTGCA | 0.138
CCGGACAC | -0.171
GAAGCACC | -0.184
CGTCCAGA | -0.142
GCATATCC | 0.0618
ACGTGTAC | 0.231
AGTATAAT | -0.00506
CTCGCCGA | 0.0861
ATCGGATC | 0.0907
AGGCGTTA | -0.15
CAATCCAA | 0.054
CAAAGATA | -0.0625
TACTACCA | 0.00692
ACCGTATA | 0.478
AGACGGAT | 0.0754
ATAGAAAA | 0.00696
AAGCCGCT | -0.0951
CAGAGGCA | -0.142
CGAATTCG | 0.0977
GAACGCGA | 0.176
